The source of these data is publication PMC3939360.

Sequences of proteins named here, by UniProt entry; tags and fusion partners are left off. Residues count along the entry.
UniProt O43157, residues 20-2135: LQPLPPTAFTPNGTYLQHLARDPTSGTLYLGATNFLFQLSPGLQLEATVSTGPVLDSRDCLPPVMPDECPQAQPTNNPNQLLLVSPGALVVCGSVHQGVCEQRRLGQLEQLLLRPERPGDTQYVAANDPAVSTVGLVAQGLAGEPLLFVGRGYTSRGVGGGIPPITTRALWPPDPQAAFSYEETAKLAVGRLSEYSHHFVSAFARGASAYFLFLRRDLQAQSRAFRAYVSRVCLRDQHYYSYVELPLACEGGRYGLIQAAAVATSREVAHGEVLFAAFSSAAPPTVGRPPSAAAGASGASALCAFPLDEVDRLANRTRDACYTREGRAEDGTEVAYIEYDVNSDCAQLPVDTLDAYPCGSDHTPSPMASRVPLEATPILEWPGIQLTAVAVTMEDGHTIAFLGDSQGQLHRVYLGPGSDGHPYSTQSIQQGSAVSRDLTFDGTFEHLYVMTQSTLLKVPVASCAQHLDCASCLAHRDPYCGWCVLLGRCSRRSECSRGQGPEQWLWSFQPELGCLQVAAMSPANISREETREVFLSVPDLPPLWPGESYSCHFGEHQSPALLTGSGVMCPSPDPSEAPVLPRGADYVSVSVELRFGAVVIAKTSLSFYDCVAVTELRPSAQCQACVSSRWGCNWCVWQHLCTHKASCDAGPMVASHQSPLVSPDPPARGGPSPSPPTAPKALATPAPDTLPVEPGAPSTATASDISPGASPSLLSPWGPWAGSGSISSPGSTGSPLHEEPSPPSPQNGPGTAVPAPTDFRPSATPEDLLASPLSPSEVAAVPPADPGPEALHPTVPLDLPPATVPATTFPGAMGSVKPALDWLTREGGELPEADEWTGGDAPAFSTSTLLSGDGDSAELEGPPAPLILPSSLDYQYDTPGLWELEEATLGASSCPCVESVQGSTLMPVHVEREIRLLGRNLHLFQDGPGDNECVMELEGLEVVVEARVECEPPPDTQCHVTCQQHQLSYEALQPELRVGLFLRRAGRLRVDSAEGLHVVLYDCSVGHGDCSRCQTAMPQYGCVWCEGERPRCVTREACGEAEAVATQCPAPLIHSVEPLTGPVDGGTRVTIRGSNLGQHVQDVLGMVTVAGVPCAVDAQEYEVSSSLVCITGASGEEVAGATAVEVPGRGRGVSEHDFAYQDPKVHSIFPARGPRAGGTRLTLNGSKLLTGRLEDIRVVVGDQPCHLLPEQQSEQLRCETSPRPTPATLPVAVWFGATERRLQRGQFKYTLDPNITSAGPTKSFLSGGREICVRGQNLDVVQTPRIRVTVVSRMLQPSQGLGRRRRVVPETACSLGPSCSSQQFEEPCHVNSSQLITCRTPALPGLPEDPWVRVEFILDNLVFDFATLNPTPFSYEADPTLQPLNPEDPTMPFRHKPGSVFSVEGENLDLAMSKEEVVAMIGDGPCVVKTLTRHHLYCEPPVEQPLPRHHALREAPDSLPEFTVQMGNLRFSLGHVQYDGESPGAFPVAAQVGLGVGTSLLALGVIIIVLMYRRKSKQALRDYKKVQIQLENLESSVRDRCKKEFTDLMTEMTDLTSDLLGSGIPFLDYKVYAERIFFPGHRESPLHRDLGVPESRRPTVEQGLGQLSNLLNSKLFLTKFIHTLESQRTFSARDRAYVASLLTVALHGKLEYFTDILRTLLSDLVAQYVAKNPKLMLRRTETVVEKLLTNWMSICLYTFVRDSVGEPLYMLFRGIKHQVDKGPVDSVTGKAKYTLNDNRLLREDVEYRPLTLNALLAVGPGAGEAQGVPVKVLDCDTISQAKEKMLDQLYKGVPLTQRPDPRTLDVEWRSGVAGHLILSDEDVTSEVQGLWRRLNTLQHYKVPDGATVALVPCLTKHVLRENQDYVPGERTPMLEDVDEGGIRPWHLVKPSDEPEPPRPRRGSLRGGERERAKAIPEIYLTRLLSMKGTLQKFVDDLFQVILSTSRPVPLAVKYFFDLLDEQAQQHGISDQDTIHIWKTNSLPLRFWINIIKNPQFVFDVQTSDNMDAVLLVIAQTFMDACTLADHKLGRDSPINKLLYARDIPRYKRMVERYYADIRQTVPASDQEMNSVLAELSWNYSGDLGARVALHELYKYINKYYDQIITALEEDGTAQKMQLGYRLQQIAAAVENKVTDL
UniProt Q13017, residues 382-1007: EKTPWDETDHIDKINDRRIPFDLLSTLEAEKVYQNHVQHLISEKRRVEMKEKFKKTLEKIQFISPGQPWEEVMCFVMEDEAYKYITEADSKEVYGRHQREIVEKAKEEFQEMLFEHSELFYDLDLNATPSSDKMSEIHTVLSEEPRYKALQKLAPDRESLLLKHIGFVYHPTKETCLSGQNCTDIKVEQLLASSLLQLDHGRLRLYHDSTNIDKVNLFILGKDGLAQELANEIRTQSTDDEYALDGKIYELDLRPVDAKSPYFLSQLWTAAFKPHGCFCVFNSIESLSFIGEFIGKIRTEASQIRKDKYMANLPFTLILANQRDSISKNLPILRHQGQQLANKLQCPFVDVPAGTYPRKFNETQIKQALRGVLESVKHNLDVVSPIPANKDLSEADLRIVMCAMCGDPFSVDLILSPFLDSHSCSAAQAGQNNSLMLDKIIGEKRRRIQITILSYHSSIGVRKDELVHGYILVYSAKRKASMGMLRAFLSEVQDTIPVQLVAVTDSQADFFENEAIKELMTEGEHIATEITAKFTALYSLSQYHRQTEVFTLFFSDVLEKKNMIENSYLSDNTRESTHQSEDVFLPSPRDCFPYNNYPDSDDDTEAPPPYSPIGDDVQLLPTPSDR

The target in assay [1] is T1, FLAG-tagged Rnd3 (UniProt P61587).
T1 sequence: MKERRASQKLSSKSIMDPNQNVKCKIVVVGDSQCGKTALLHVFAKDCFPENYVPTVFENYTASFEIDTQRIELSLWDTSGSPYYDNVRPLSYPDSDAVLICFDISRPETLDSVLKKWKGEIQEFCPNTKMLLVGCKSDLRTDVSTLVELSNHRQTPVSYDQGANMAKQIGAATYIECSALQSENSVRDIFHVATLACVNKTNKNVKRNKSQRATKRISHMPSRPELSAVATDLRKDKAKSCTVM
Nature of the assay: co-IP; P19 cells co-transfected with FLAG-Rnd and VSV-Plexin plasmids, lysed 24 h later in RIPA-like buffer (50 mM Tris-HCl pH 8, 150 mM NaCl, 0.5% NP40 Igepal, 10% glycerol); lysate incubated overnight at 4 °C with anti-FLAG M2 agarose beads; immunoblot with anti-VSV and anti-FLAG. In general terms: Immunoblotting shows a protein as a band on a membrane.

For assay [2], the target named is T1, FLAG-tagged Rnd3. The assay can be described thus: co-IP; competition: COS7 cells co-transfected with 5 μg pCMV5-FLAG-Rnd3, pCMV-Myc-Δp190B and increasing pcDNA-VSV-PlexinB2 (0.5, 1, 2 and 5 μg); lysates immunoprecipitated with anti-FLAG M2 antibody, immunoblotted with the indicated antibodies.
The target in the next assay is T2, FLAG-Rnd3 T55V (UniProt P61587).
T2 sequence: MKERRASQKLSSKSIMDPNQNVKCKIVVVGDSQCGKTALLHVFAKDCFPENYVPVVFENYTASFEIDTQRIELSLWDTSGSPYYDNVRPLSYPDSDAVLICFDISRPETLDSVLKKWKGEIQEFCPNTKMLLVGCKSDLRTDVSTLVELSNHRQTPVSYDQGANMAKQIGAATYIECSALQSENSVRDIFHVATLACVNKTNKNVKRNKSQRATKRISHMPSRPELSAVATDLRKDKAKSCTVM
Nature of the assay: co-IP; COS7 cells co-transfected with FLAG-Rnd3 or FLAG-Rnd3 T55V and HA-PlexinB2 (cytoplasmic domain); lysates 24 h after transfection immunoprecipitated with mouse anti-FLAG M2 antibody; immunoblot with anti-HA and anti-FLAG.

The target of assay [3] is T1, FLAG-tagged Rnd3. The description is as above.

No constants are given. Whether binding was seen depends on the method and setting. Binding seen in cells or lysates may run through a third protein. Some results given as binding are weak or reduced against the parent protein; the word gives no strength. Tags and fused reporters may be left off the sequences shown.

As for “human VSV-tagged PlexinB1 (from UniProt O43157 20-2135) (receptor)”, the binding result with FLAG-tagged Rnd3 [1] is given as “no binding”.

Take “Myc-p190RhoGAP-B (middle domain) (from UniProt Q13017 382-1007) (domain or fragment)”: in the assay with FLAG-tagged Rnd3 [2], the binding result is given as “binds”.

B1: HA-PlexinB2 (cytoplasmic domain) (domain or fragment, UniProt B2RXS4 1223-1842)
chain: CYWRKSQQAEREYEKIKSQLEGLEESVRDRCKKEFTDLMIEMEDQTNDVHEAGIPTLDYKTYTDRVFFLPSKDGDKDVMITGKLDIPESRRPIVEQALYQFSNLLNSKSFLINFIHTLENQREFSARAKVYFASLLTVALHGKLEYYTDIMRTLFLELMEQYVVAKNPKLMLRRSETVVERMLSNWMSICLYQYLKDSAGEPLYKLFKAIKHQVEKGPVDAVQKKAKYTLNDTGLLGDDVEYAPLTVSVIVQDEGIDAIPVKVLNCDTISQVKEKIIDQVYRTQPCSCWPKPDSVVLEWRPGSTAQILSDLDLTSQREGRWKRINTLMHYNVRDGATLILSKVGVSQQPEDSQQDLPGERHALLEEENRVWHLVRPTDEVDEGKSKRGSMKEKERTKAITEIYLTRLLSVKGTLQQFVDNFFQSVLAPGHAVPPAVKYFFDFLDEQAEKHDIRDEDTIHIWKTNSLPLRFWVNILKNPHFIFDVHVHEVVDASLSVIAQTFMDACTRTEHKLSRDSPSNKLLYAKEISTYKKMVEDYYKGIRQMVQVSDQDMNTHLAEISRAHTDSLNTLVALHQLYQYTQKYYDEIINALEEDPAAQKMQLAFRLQQIAAALENKVTDL
As to B1, the binding result with FLAG-Rnd3 T55V is reported as “no binding”; in the assay with FLAG-tagged Rnd3 [3], “binds”.
